Hit rate of the full screen: of about 45,000 compounds, about 200 (0.44%) were called active. Inconclusive results (about 7%) are left out. Calls follow the shape of the dose curve; as a rule, active = well fitted activation curve with a large enough effect; inconclusive = small, poorly fitted or top-dose-only effect; inactive = no such curve, though single readings can be large or run the other way. The list shows a part of the results.
Assay: qHTS of TDP-43 Inhibitors: NCGC Sytravon Library Screen; also: 0% is about no effect; nearly all actives have a fitted effect of over 55% in size
Details: yeast TDP-43 toxicity rescue, BacTiter-Glo growth, 24 h; series mostly up to 46.1 µM; growth rescue (activation): at the top concentration
Method in brief: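 TDP-43-expressing yeast, pregrown in raffinose, seeded at OD600 0.02 in galactose medium with compound for 24 hr at 30 deg C. Growth read by BacTiter-Glo luminescence, so rescue of toxicity appears as activation.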

| SMILES | growth rescue (activation) |
| --- | --- |
| CC1(C)C2CCC1(CS(=O)(=O)NC(CC(=O)O)c1cccc(Br)c1)C(=O)C2 (configuration not stated) | inactive: 2.92% |
| CCCS(=O)(=O)N1CCN(Cc2ccccc2[N+](=O)[O-])CC1 | inactive: -5.03% |
| CCOc1ccc(-c2nnc(-c3ccncc3)o2)cc1OCC | inactive: -3.82% |
| COCCN(Cc1ccccc1)P(=O)(O)c1ccccc1OCC(=O)O | inactive: -0.471% |
| CCCCNC(=O)COC(=O)c1ccc(SC)cc1OC | inactive: 8.94% |
| CCc1cc2c(SCc3nc4sc(C(C)=O)c(C)c4c(=O)[nH]3)ncnc2s1 | inactive: 5.59% |
| COc1ccc(C)cc1Nc1nc(N)c2cc(OC)c(OC)cc2n1 | inactive: 3.56% |
| Cc1ccc(S(=O)(=O)N2CCN(c3ccc([N+](=O)[O-])c(Sc4nncn4C)c3)CC2)cc1 | inactive: 0.784% |
| O=C(NCc1ccccc1F)C1CCCN(C(=O)Nc2ccc(F)cc2)C1 (configuration not stated) | inactive: -2.48% |
| C[C@H]1C(=O)N(C)CCN1Cc1cn(C)nc1-c1ccc(Oc2ccccc2)cc1 | inactive: 7.31% |
| Cn1cc(CN2CCC(C(=O)N3CCCC3)CC2)c(-c2ccccc2F)n1 | inactive: 3.82% |
| Cc1nn(-c2ccc(Cl)cc2)c2sc(C(=O)N3CCN(c4ccccn4)CC3)cc12 | inactive: 30.8% |
| COc1ccc2cnn(-c3ccc(OC(F)(F)F)cc3)c(=O)c2c1OC | inactive: 11% |
| CCCOc1ccc(CSc2n[nH]c(C)n2)cc1 | inactive: 11.6% |
| O=C(CCS(=O)(=O)c1ccccc1)Nc1ccc(S(=O)(=O)Nc2ncccn2)cc1 | inactive: 13.7% |
| O=C(Nc1nccs1)c1c(O)c2c([nH]c1=O)CCCC2 | inactive: -2.01% |
| CCCCOc1ccc(C(=O)N/C(=C/C=C/c2ccccc2)C(=O)N2CCOCC2)cc1 | inactive: -12.5% |
| Cc1ccc(-n2nnnc2SC(C)C(=O)NCC(=O)Nc2ccc(F)c(F)c2F)c(C)c1 (configuration not stated) | inactive: 16.5% |
| Cc1ccc(OCC(=O)NCCCNC(=O)c2cnccn2)cc1C | inactive: 14.7% |
| O=S1(=O)N=C(N/N=C/c2ccc(Br)o2)c2ccccc21 | inactive: 5.51% |
| COc1cc(C(=O)NC2CCCc3ccccc32)cc(OC)c1OC (configuration not stated) | inactive: 25% |
| COc1ccc(C(=O)Nc2ccccc2C(=O)Nc2cccnc2)cc1 | inactive: -39.6% |
| CSc1ccc(S(=O)(=O)NC(C)c2ccccc2)cc1 (configuration not stated) | inactive: 16.7% |

| SMILES | growth rescue (activation) |
| --- | --- |
| COc1ccccc1CNc1nc(NCCOc2ccccc2Cl)c2sccc2n1 | inactive: 14.4% |
| CCc1ccc(NC(=O)C2CCCN(S(=O)(=O)c3cccs3)C2)cc1 (configuration not stated) | inactive: 6.72% |
| CC(=O)N1N=C(c2cccnc2)OC1c1ccc(C(C)C)cc1 (configuration not stated) | inactive: 8.99% |
| COc1ccc(-c2cc(C(=O)N3CCN(c4ccccc4F)CC3)c3ccccc3n2)c(OC)c1 | inactive: -86.1% |
| COc1cccc(/C=C2/SC(=O)N(C)C2=O)c1OCc1ccc(C(=O)O)cc1 | inactive: 2.44% |
| CC1SC(=S)N(c2ccc(N(C)C)cc2)C1=O (configuration not stated) | inactive: -9.46% |
| COc1ccc(NC(=O)CNC(=O)Cc2ccccc2)cc1 | inactive: 0.802% |
| Cc1ccc(C(=O)CCC(=O)Nc2cccc(C(F)(F)F)c2)cc1 | inactive: 27.2% |
| CC(=O)c1ccc(NC(=O)COC(=O)Cn2cnc3ccccc32)cc1 | inactive: 22% |
| Cn1ncc(N=Cc2ccc([N+](=O)[O-])cc2)c1C(=O)Nc1ccccc1 | inactive: 0.812% |
| c1ccc2[nH]c(CSc3nnc(-c4ccncc4)o3)nc2c1 | inactive: 2.49% |
| COC(=O)[C@H](CC(C)C)NC(=O)Nc1ccc(F)cc1 | inactive: 0.555% |
| Nc1ccc(-c2c3ccc(=O)cc-3oc3cc(O)ccc23)cc1C(=O)O | inactive: -4.45% |
| COc1ccc(CCCNC(=O)C2Cc3c(-c4ccc(NC(C)=O)cc4)ccnc3O2)cc1 (configuration not stated) | inactive: 1.24% |
| CCn1c(CC(=O)Nc2ccccc2)nnc1SCC(=O)NC1CCCC1 | inactive: -8.85% |
| CS(=O)(=O)c1ccc(C(=O)OC2CCOC2=O)cc1[N+](=O)[O-] (configuration not stated) | inactive: -1.5% |
| Cc1nonc1CN(C)C(=O)CC1C(=O)NCCN1Cc1ccccc1C(F)(F)F (configuration not stated) | inactive: 11.8% |
| COc1ccc2nc(N3C(=O)C(O)=C(C(=O)c4ccco4)C3c3ccco3)sc2c1 (configuration not stated) | inactive: -2.25% |
| COc1ccccc1C/C(N)=N/OC(=O)c1cccc([N+](=O)[O-])c1C | inactive: -71% |
| CN1/C(=C/C(=O)COC(=O)CN2C(=O)C3CC=CCC3C2=O)C(C)(C)c2ccccc21 (configuration not stated) | inactive: 8% |
| Cc1cc(CNC(=O)c2cccc([N+](=O)[O-])c2)c2ccccc2n1 | inactive: -4.65% |
| O=C(NCC1c2ccccc2CCN1C(=O)CN1C(=O)c2ccccc2C1=O)C1CCCCC1 (configuration not stated) | inactive: 5.61% |
| CCOC(=O)c1cnc2ccc(Cl)cc2c1Nc1ccc(S(=O)(=O)Nc2ncccn2)cc1 | inactive: 4.37% |

| SMILES | growth rescue (activation) |
| --- | --- |
| Cc1ccc(C)c(Cn2c(=O)n(CCCC(=O)NCc3ccc4c(c3)OCO4)c(=O)c3sccc32)c1 | inactive: 4.42% |
| COc1cc2c(cc1OC)CN(C(C)C(=O)N1CCc3ccccc31)CC2 (configuration not stated) | inactive: 4.95% |
| COc1ccc(C(=O)C[n+]2ccccc2C)cc1 | inactive: -7.85% |
| Cc1cc([N+](=O)[O-])ccc1NCc1ccccc1[N+](=O)[O-] | inactive: 17.5% |
| Cc1cccc(-c2nc(C#N)c(N3CCC(C)CC3)o2)c1 | inactive: 6.27% |
| CCOC(=O)c1c(C)[nH]c(C(=O)NNC(=O)c2ccccc2F)c1C | inactive: 10.8% |
| CC(C)(C)n1cnc2cc(NCc3ccc(Br)cc3)ccc21 | inactive: -12.2% |
| CCOC(=O)C1(CCCc2ccccc2)CCN(Cc2ccn[nH]2)CC1 | inactive: -4.99% |
| COC(=O)CC1C(=O)NCCN1C(=S)Nc1ccc(F)cc1 (configuration not stated) | inactive: 7.21% |
| Cc1ccc(C(=O)N2N=C(c3ccccc3)CC2(O)C(F)(F)F)o1 (configuration not stated) | inactive: 31.4% |
| CC(C(=O)NC(C)(C)C)N(C(=O)CS(=O)CC(=O)Nc1ccc(F)cc1)c1ccccc1F (configuration not stated) | inactive: 10.9% |
| O=C(COC(=O)c1ccc(F)cc1F)NCc1ccc2c(c1)OCO2 | inactive: 18.6% |
| CC1CCC2(CC1)N=C(c1ccccc1)C(=O)N2CC(=O)Nc1ccc(F)c(Cl)c1 (configuration not stated) | inactive: 8.55% |
| CN(Cc1ccccc1)S(=O)(=O)c1ccc(Cl)c(C(=O)OCC(N)=O)c1 | inactive: 27.6% |
| CC1=C(C)CC(C(=O)NC(C)CCc2ccccc2)C(C(=O)O)C1 (configuration not stated) | inactive: 9.21% |
| CC(=O)c1ccc(S(=O)(=O)NC2CCCCCCC2)cc1 | inactive: 10% |
| COc1cccc(CNC(=O)c2ccc3c(c2)nc2n3CCCCC2)c1OC | inactive: -3.68% |
| COc1ccc(/C=C/C(=O)OCC(=O)NC2CCCC2)cc1OC | inactive: 14.2% |
| CC(C)NCC(=O)Nc1c2c(nc3ccccc13)CCC2 | inactive: 2.46% |
| COc1ccccc1NC(=O)CNC(=O)CC12CC3CC(CC(C3)C1)C2 | inactive: -13.4% |
| O=[N+]([O-])c1cccc(-c2nnc(-c3ccccc3)o2)c1 | inactive: -7.32% |

From PubChem BioAssay AID1347073 (National Center for Advancing Translational Sciences (NCATS), 2019)
